# Assay results from the supplement of paper PMC8728848.
# Some of the results follow.
# B1: PfulAvr4 (Pseudocercospora fuligena) (protein)
# chain: HHHHHHDYKDDDDKTYVQDKTPAFVCPAADIKTTKCLGPKDCLYPSPKTCNGYIQCSPADDSYLTGIIHEMPCPSGLLWNDNKKWCDWPENTTCGLVKSAGATEVDATKQGPTPGKYHG
# How the values were obtained:
# Test in all cases: glycan array binding signal (z-score within array); higher = stronger binding
# Conditions in all cases: glycan notation: IUPAC condensed, linker removed
# [1] = molecular target: Gal(b1-3)GlcNAc(b1-2)Man(a1-3)[Gal(b1-3)GlcNAc(b1-2)Man(a1-6)]Man(b1-4)GlcNAc(b1-4)[Fuc(a1-6)]GlcNAc
# Summary of the method: (§1)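 Glycan array data were curated from 3228 arrays in the Consortium for Functional Glycomics database and kept only where the protein sequence was available. Glycan names were converted to IUPAC-condensed notation, and columns mapping to the same glycan were averaged. The binding signal is a within-array Z-score, averaged across arrays of the same protein sequence at different concentrations or buffers and across linkers. Negative Z-scores can be read as non-binding.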
# [2] = molecular target: Gal(b1-3)GlcNAc(b1-2)Man(a1-3)[GlcNAc(b1-4)][Gal(b1-3)GlcNAc(b1-2)Man(a1-6)]Man(b1-4)GlcNAc(b1-4)GlcNAc
# Summary of the method: as §1
# [3] = molecular target: Gal(b1-3)GlcNAc(b1-2)[Gal(b1-3)GlcNAc(b1-6)]Man(a1-6)[Gal(b1-3)GlcNAc(b1-2)Man(a1-3)]Man(b1-4)GlcNAc(b1-4)GlcNAc
# Summary of the method: as §1
# [4] = molecular target: Gal(b1-3)GlcNAc(b1-3)Gal(b1-3)GlcNAc
# Summary of the method: as §1
# [5] = molecular target: Gal(b1-3)GlcNAc(b1-3)Gal(b1-4)Glc
# Summary of the method: as §1
# [6] = molecular target: Gal(b1-3)GlcNAc(b1-3)Gal(b1-4)GlcNAc
# Summary of the method: as §1
# [7] = molecular target: Gal(b1-3)GlcNAc(b1-3)Gal(b1-4)GlcNAc(b1-2)Man(a1-3)[Gal(b1-3)GlcNAc(b1-3)Gal(b1-4)GlcNAc(b1-2)Man(a1-6)]Man(b1-4)GlcNAc(b1-4)GlcNAc
# Summary of the method: as §1
# [8] = molecular target: Gal(b1-3)GlcNAc(b1-3)Gal(b1-4)GlcNAc(b1-2)[Gal(b1-3)GlcNAc(b1-3)Gal(b1-4)GlcNAc(b1-6)]Man(a1-6)[Gal(b1-3)GlcNAc(b1-3)Gal(b1-4)GlcNAc(b1-2)Man(a1-3)]Man(b1-4)GlcNAc(b1-4)[Fuc(a1-6)]GlcNAc
# Summary of the method: as §1
# [9] = molecular target: Gal(b1-3)GlcNAc(b1-3)Gal(b1-4)GlcNAc(b1-3)Gal(b1-4)GlcNAc(b1-2)[Gal(b1-3)GlcNAc(b1-3)Gal(b1-4)GlcNAc(b1-3)Gal(b1-4)GlcNAc(b1-6)]Man(a1-6)[Gal(b1-3)GlcNAc(b1-3)Gal(b1-4)GlcNAc(b1-3)Gal(b1-4)GlcNAc(b1-2)Man(a1-3)]Man(b1-4)GlcNAc(b1-4)[Fuc(a1-6)]GlcNAc
# Summary of the method: as §1
# [10] = molecular target: Gal(b1-3)GlcNAc(b1-3)Gal(b1-4)GlcNAc(b1-6)[Gal(b1-3)GlcNAc(b1-3)]Gal(b1-4)Glc
# Summary of the method: as §1
# [11] = molecular target: Gal(b1-3)GlcNAc(b1-3)Gal(b1-4)[Fuc(a1-3)]GlcNAc
# Summary of the method: as §1
# [12] = molecular target: Gal(b1-3)GlcNAc(b1-3)Gal(b1-4)[Fuc(a1-3)]GlcNAc(b1-6)[Gal(b1-3)GlcNAc(b1-3)]Gal(b1-4)Glc
# Summary of the method: as §1
# [13] = molecular target: Gal(b1-3)GlcNAc(b1-3)GalNAc
# Summary of the method: as §1
# [14] = molecular target: Gal(b1-3)GlcNAc(b1-6)Gal(b1-4)GlcNAc
# Summary of the method: as §1
# [15] = molecular target: Gal(b1-3)GlcNAc(b1-6)GalNAc
# Summary of the method: as §1
# [16] = molecular target: Gal(b1-3)GlcNAc(b1-6)[Gal(b1-3)]GalNAc
# Summary of the method: as §1
# [17] = molecular target: Gal(b1-3)GlcNAc6S
# Summary of the method: as §1
# [18] = molecular target: Gal(b1-3)[Fuc(a1-4)]GlcNAc
# Summary of the method: as §1
# [19] = molecular target: Gal(b1-3)[Fuc(a1-4)]GlcNAc(b1-2)Man
# Summary of the method: as §1
# [20] = molecular target: Gal(b1-3)[Fuc(a1-4)]GlcNAc(b1-2)Man(a1-3)[Gal(b1-3)[Fuc(a1-4)]GlcNAc(b1-2)Man(a1-6)]Man(b1-4)GlcNAc(b1-4)[Fuc(a1-6)]GlcNAc
# Summary of the method: as §1
# [21] = molecular target: Gal(b1-3)[Fuc(a1-4)]GlcNAc(b1-3)Gal(b1-3)[Fuc(a1-4)]GlcNAc
# Summary of the method: as §1
# [22] = molecular target: Gal(b1-3)[Fuc(a1-4)]GlcNAc(b1-3)Gal(b1-4)[Fuc(a1-3)]GlcNAc
# Summary of the method: as §1
# [23] = molecular target: Gal(b1-3)[Fuc(a1-4)]GlcNAc(b1-6)GalNAc
# Summary of the method: as §1
# [24] = molecular target: Gal(b1-3)[GlcNAc(b1-6)]GalNAc
# Summary of the method: as §1
# [25] = molecular target: Gal(b1-3)[Neu5Ac(a2-6)]GalNAc
# Summary of the method: as §1
# [26] = molecular target: Gal(b1-3)[Neu5Ac(a2-6)]GlcNAc(b1-4)Gal(b1-4)Glc
# Summary of the method: as §1
# [27] = molecular target: Gal(b1-3)[Neu5Ac(b2-6)]GalNAc
# Summary of the method: as §1
# [28] = molecular target: Gal(b1-4)Gal
# Summary of the method: as §1
# [29] = molecular target: Gal(b1-4)GalNAc(a1-3)[Fuc(a1-2)]Gal(b1-4)GlcNAc
# Summary of the method: as §1
# [30] = molecular target: Gal(b1-4)GalNAc(b1-3)[Fuc(a1-2)]Gal(b1-4)GlcNAc
# Summary of the method: as §1
# [31] = molecular target: Gal(b1-4)Glc
# Summary of the method: as §1
# [32] = molecular target: Gal(b1-4)Glc6S
# Summary of the method: as §1
# [33] = molecular target: Gal(b1-4)GlcNAc
# Summary of the method: as §1
# [34] = molecular target: Gal(b1-4)GlcNAc(a1-6)Gal(b1-4)GlcNAc
# Summary of the method: as §1
# [35] = molecular target: Gal(b1-4)GlcNAc(b1-2)Man
# Summary of the method: as §1
# [36] = molecular target: Gal(b1-4)GlcNAc(b1-2)Man(a1-3)Man(b1-4)GlcNAc(b1-4)GlcNAc
# Summary of the method: as §1
# [37] = molecular target: Gal(b1-4)GlcNAc(b1-2)Man(a1-3)[Gal(b1-4)GlcNAc(b1-2)Man(a1-6)]Man(b1-4)GlcNAc(b1-4)GlcNAc
# Summary of the method: as §1
# [38] = molecular target: Gal(b1-4)GlcNAc(b1-2)Man(a1-3)[Gal(b1-4)GlcNAc(b1-2)Man(a1-6)]Man(b1-4)GlcNAc(b1-4)[Fuc(a1-6)]GlcNAc
# Summary of the method: as §1
# [39] = molecular target: Gal(b1-4)GlcNAc(b1-2)Man(a1-3)[Gal(b1-4)GlcNAc(b1-2)Man(a1-6)][Gal(b1-4)GlcNAc(b1-4)]Man(b1-4)GlcNAc(b1-4)[Fuc(a1-6)]GlcNAc
# Summary of the method: as §1
# [40] = molecular target: Gal(b1-4)GlcNAc(b1-2)Man(a1-3)[Gal(b1-4)GlcNAc(b1-2)Man(a1-6)][GlcNAc(b1-4)]Man(b1-4)GlcNAc(b1-4)[Fuc(a1-6)]GlcNAc
# Summary of the method: as §1
# [41] = molecular target: Gal(b1-4)GlcNAc(b1-2)Man(a1-3)[GlcNAc(b1-2)Man(a1-6)]Man(b1-4)GlcNAc(b1-4)GlcNAc
# Summary of the method: as §1
# [42] = molecular target: Gal(b1-4)GlcNAc(b1-2)Man(a1-3)[GlcNAc(b1-4)][Gal(b1-4)GlcNAc(b1-2)Man(a1-6)]Man(b1-4)GlcNAc(b1-4)GlcNAc
# Summary of the method: as §1
# [43] = molecular target: Gal(b1-4)GlcNAc(b1-2)Man(a1-3)[Man(a1-6)]Man(b1-4)GlcNAc(b1-4)GlcNAc
# Summary of the method: as §1
# [44] = molecular target: Gal(b1-4)GlcNAc(b1-2)Man(a1-6)Man(b1-4)GlcNAc(b1-4)GlcNAc
# Summary of the method: as §1
# [45] = molecular target: Gal(b1-4)GlcNAc(b1-2)Man(a1-6)[GlcNAc(b1-2)Man(a1-3)]Man(b1-4)GlcNAc(b1-4)GlcNAc
# Summary of the method: as §1
binder,measurement,setting,value
B1,glycan array binding signal (z-score),[1],-0.046
same,glycan array binding signal (z-score),[2],0.682
same,glycan array binding signal (z-score),[3],-0.056
same,glycan array binding signal (z-score),[4],-0.09
same,glycan array binding signal (z-score),[5],-0.169
same,glycan array binding signal (z-score),[6],-0.069
same,glycan array binding signal (z-score),[7],-0.139
same,glycan array binding signal (z-score),[8],0.019
same,glycan array binding signal (z-score),[9],-0.044
same,glycan array binding signal (z-score),[10],-0.115
same,glycan array binding signal (z-score),[11],-0.127
same,glycan array binding signal (z-score),[12],-0.139
same,glycan array binding signal (z-score),[13],-0.105
same,glycan array binding signal (z-score),[14],-0.112
same,glycan array binding signal (z-score),[15],-0.145
same,glycan array binding signal (z-score),[16],-0.093
same,glycan array binding signal (z-score),[17],-0.192
same,glycan array binding signal (z-score),[18],-0.112
same,glycan array binding signal (z-score),[19],0.188
same,glycan array binding signal (z-score),[20],0.612
same,glycan array binding signal (z-score),[21],-0.176
same,glycan array binding signal (z-score),[22],-0.13
same,glycan array binding signal (z-score),[23],-0.112
same,glycan array binding signal (z-score),[24],-0.051
same,glycan array binding signal (z-score),[25],0.215
same,glycan array binding signal (z-score),[26],-0.096
same,glycan array binding signal (z-score),[27],-0.046
same,glycan array binding signal (z-score),[28],-0.141
same,glycan array binding signal (z-score),[29],-0.135
same,glycan array binding signal (z-score),[30],-0.141
same,glycan array binding signal (z-score),[31],-0.099
same,glycan array binding signal (z-score),[32],-0.056
same,glycan array binding signal (z-score),[33],-0.091
same,glycan array binding signal (z-score),[34],-0.106
same,glycan array binding signal (z-score),[35],0.067
same,glycan array binding signal (z-score),[36],-0.138
same,glycan array binding signal (z-score),[37],-0.092
same,glycan array binding signal (z-score),[38],-0.059
same,glycan array binding signal (z-score),[39],-0.147
same,glycan array binding signal (z-score),[40],-0.085
same,glycan array binding signal (z-score),[41],-0.095
same,glycan array binding signal (z-score),[42],-0.088
same,glycan array binding signal (z-score),[43],1.71
same,glycan array binding signal (z-score),[44],-0.161
same,glycan array binding signal (z-score),[45],-0.136
